# Reference: PubChem BioAssay AID463173 (ICCB-Longwood Screening Facility, Harvard Medical School, 2010)
# The campaign covered roughly 52,000 compounds. About 1,700 (3.3%) were called active. No stated cut-off is given here; in the data, active means survival mostly below about 52% (no sharp cut-off); inactive means mostly above about 56%. Some of the results follow.
# System: Wild type
# Experiment: growth inhibition of S. aureus wild type versus tarO mutant, primary screen, teichoic acid synthesis inhibitors, RN4220, OD600 (AID 463173)
# Conditions: S. aureus RN4220 wild type/DeltatarO growth, OD600, 18 h, hits give low values, screened at 18.75 µg/mL (by protocol)
row,Structure (SMILES),survival
1,CCOc1ccc(N(CC(=O)Nc2ccccc2CC)S(=O)(=O)c2c(C)noc2C)cc1,inactive: 86%
2,Cc1cccc(NC(=O)CSc2nc3ccccc3nc2N2CCCCC2)c1C,inactive: 70%
3,COc1cc(NC(=O)C(Cc2ccccc2)NS(=O)(=O)c2cccc3nsnc23)cc(OC)c1 (configuration not stated),inactive: 79%
4,CN(c1ccccc1C(=O)NCc1ccco1)S(C)(=O)=O,inactive: 102%
5,O=C(Cn1ccn(-c2ccc(F)c(F)c2)c(=O)c1=O)NCCc1ccccc1,inactive: 89%
6,COc1ccc(Br)cc1CNC(=O)c1ccc2c(c1)nc1n2CCC(C)C1 (configuration not stated),inactive: 70%
7,CN(C)CCN1C(=O)C2C3C=CC(C3)C2C1=O (configuration not stated),inactive: 116%
8,CCCCNc1nc(Oc2ccc(=O)n(C)n2)nc(N2CCOCC2)n1,inactive: 88%
9,CC(=O)c1cccc(NC(=O)CCc2c(C)nc3c(c(C)nn3-c3ccccc3)c2C)c1,inactive: 79%
10,Cc1cc(C)cc(NC(=O)c2cc(S(=O)(=O)N3CCC(C)CC3)cn2C)c1,inactive: 79%
11,COc1ccc(C(=O)c2c(N)c(-c3nc(-c4ccc(OC)cc4)cs3)c3ccccn23)cc1,inactive: 98%
12,Cc1cc(C)c2c(=O)cc(C(=O)Nc3c(C)n(C)n(-c4ccccc4)c3=O)oc2c1,inactive: 94%
13,CCN(CC)C(=O)N1CCN(C(=O)N(CC)CC)CC1,inactive: 110%
14,O=C(CCC1N=C2c3ccccc3N=C(SCc3cccc(Cl)c3)N2C1=O)N1CCN(c2ccccc2)CC1 (configuration not stated),inactive: 59%
15,CCOc1ccc(-c2cc3c(=O)n(CC(=O)Nc4cc(F)ccc4C)ccn3n2)cc1,inactive: 68%
16,CCn1nc(-c2ccccc2)c(-c2ccccc2)c(C(=O)Nc2ccccc2C#N)c1=O,inactive: 87%
17,COc1cc2[nH]c(=O)n(CCC(=O)N3CCN(c4ccc(Cl)cc4)CC3)c(=O)c2cc1OC,inactive: 93%
18,Cc1cc(C)c(/C=C/c2onc(C)c2S(=O)(=O)N2CCC(C(=O)NCc3ccccc3Cl)CC2)c(C)c1,inactive: 72%
19,O=S(=O)(Cc1ccccc1)NCc1ccco1,inactive: 100%
20,CCS(=O)(=O)N1CCN(Cc2nc3sc4c(c3c(=O)[nH]2)CCC(C(C)(C)C)C4)CC1 (configuration not stated),inactive: 104%
21,Cc1csc2nc(COc3ccc(NC(=O)COc4ccccc4)cc3)cc(=O)n12,inactive: 93%
22,CCOC(=O)C1CCN(C(=O)Cn2ncc3c4ccccc4n(Cc4ccc(F)cc4)c3c2=O)CC1,inactive: 80%

row,Structure (SMILES),survival
1,COc1ccc(S(=O)(=O)c2c(O)c3ccc(C(=O)NCc4ccc(Cl)cc4)cc3[nH]c2=O)cc1,inactive: 90%
2,CCN(Cc1ccccc1)C(=O)Cn1c(=O)n(-c2cccc(C)c2)c(=O)c2c1c1cc(C)ccc1n2C,inactive: 74%
3,Cc1ccc2oc3c(c(=O)c2c1)C(c1ccc([N+](=O)[O-])cc1)N(CCCN1CCOCC1)C3=O (configuration not stated),inactive: 84%
4,C=CCc1ccccc1OCc1nc2ccccc2n1CC,inactive: 76%
5,COc1ccc(OCC(O)CN(Cc2ccccc2)Cc2ccccc2)cc1 (configuration not stated),inactive: 120%
6,CC(C)(C)C(=O)Cn1c(=O)n(-c2ccccc2)c(=O)c2c3c(sc21)CCC3,inactive: 85%
7,Cc1ccc(NC(=O)CN2C(=O)COc3ccc(S(=O)(=O)NC4CCCC4)cc32)cc1Cl,inactive: 66%
8,Cc1ccccc1OCC(=O)NCCN1CCCC1,inactive: 113%
9,O=C(CN1C(=O)c2cccnc2Oc2ccc(Cl)cc21)NCCc1ccccc1,inactive: 66%
10,Cc1cc(NC(=O)CSc2ncc(C(=O)Nc3ccc(Cl)cc3)c(=O)n2C)no1,inactive: 78%
11,CCCCNc1ccc(-c2nc(-c3ccco3)no2)cc1[N+](=O)[O-],inactive: 86%
12,CCOC(=O)c1c(-c2ccc(C)cc2)csc1NC(=O)c1cc(-c2ccc(C)c(F)c2)on1,inactive: 83%
13,CCC(CC)C(=O)Nc1ccc2nc(SCC(=O)N3CCc4ccccc43)sc2c1,inactive: 108%
14,Cc1ccc(C(=O)N2CC(=O)NC(=O)C2)cc1,inactive: 119%
15,Cc1ccc(CNC(=O)CN(c2cccc(C)c2C)S(=O)(=O)c2ccccc2)cc1,inactive: 90%
16,Cc1cccc(N2CCN(S(=O)(=O)c3cc(Cl)ccc3Cl)CC2)c1C,inactive: 102%
17,CC(=O)c1cccc(NC(=O)C2CCCN(C(=O)c3cnn(-c4ccccc4)c3-n3cccc3)C2)c1 (configuration not stated),inactive: 123%
18,O=C(CSc1nnnn1C1CCCC1)c1ccc2c(c1)OCCO2,inactive: 102%
19,Cn1c2ccccc2c2cnn(CC(=O)N3CCN(c4cccc(C(F)(F)F)c4)CC3)c(=O)c21,inactive: 85%
20,CCOc1ccc(C(=O)Nc2cccc(NC(=O)c3ccc(C(C)(C)C)cc3)c2)cc1Br,inactive: 93%
21,O=C(c1ccc2c(c1)N(Cc1ccc(F)cc1)C(=O)c1ccccc1S2(=O)=O)N1CCN(Cc2ccccc2)CC1,inactive: 96%
22,COc1ccc(-c2nc(SCC(=O)Nc3ccc4c(c3)OCCO4)c(-c3ccc(F)cc3)[nH]2)cc1OC,inactive: 62%

row,Structure (SMILES),survival
1,COc1ccc(CC(=O)NCc2ccc3c(c2)CCN3C(C)=O)cc1,inactive: 72%
2,CC(C)CC(=O)n1nc(-c2cccnc2)nc1NCc1ccc(F)cc1,inactive: 108%
3,CCc1cccc2c(C#N)cn(CC(=O)N(CC)CC)c12,inactive: 102%
4,Cc1ccc(NC(=O)CCCn2c(=O)c3cccn3c3ccccc32)cc1C,inactive: 77%
5,COCCCNC(=O)c1ccc(-n2c(-c3ccccc3)cc3c2CCCC3)cc1,inactive: 83%
6,COc1cccc(-c2nnc(SCC(=O)N3CCC(C)CC3)o2)c1,inactive: 63%
7,O=C(OCc1cc(=O)n2nc(C3CCCCC3)sc2n1)c1ccccc1Cl,inactive: 59%
8,Cc1cc(C)n(-c2nc3ccccc3nc2Nc2ccc(Cl)c(C(=O)OC(C)C)c2)n1,inactive: 84%
9,CCN(CC)C(=O)CSc1nc2ccccc2cc1C,inactive: 96%
10,COc1ccc(OCC(=O)OCc2cc(=O)n3nc(-c4cccs4)sc3n2)cc1,inactive: 87%
11,Cc1ccc(CNC(=O)CCc2c(C)nc3nc(C)nn3c2C)cc1,inactive: 120%
12,Cc1ccc(OCC(=O)Nc2cccc(OCc3cc(=O)n4cccc(C)c4n3)c2)cc1C,inactive: 124%
13,Cc1ccc(CCNC(=O)CCCn2c(=O)c3ccccc3n(Cc3ccccc3C#N)c2=O)cc1,inactive: 98%
14,CCn1cc2c(n1)-c1c(oc(C(=O)Nc3cccc(C)c3C)c1C)CC2,inactive: 114%
15,Cc1ccc(Cl)cc1NC(=O)Cn1c(=O)n(Cc2ccccc2)c(=O)c2oc3ccccc3c21,inactive: 83%
16,Cc1cc(C)cc(NC(=O)CSc2oc(-c3ccccc3)nc2S(=O)(=O)c2ccccc2)c1,inactive: 140%
17,CCc1ccc(O)c(C(=O)c2cnc3cc(-c4ccc(C)cc4)nn3c2)c1,inactive: 66%
18,N#Cc1c(C(F)(F)F)cc(-c2cccs2)nc1SCC(=O)Nc1ccccc1F,inactive: 136%
19,CCn1cc(S(=O)(=O)c2ccccc2)c(=O)c2cc(F)c(N3CCCC3)cc21,inactive: 153%
20,Cc1cc(C)cc(NS(=O)(=O)c2ccc3[nH]cc(C(=O)NC4CCCCC4)c(=O)c3c2)c1,inactive: 27%
21,CCN1CC=C2C(C#N)=C(N)C(C#N)(C#N)C(C)C2C1 (configuration not stated),inactive: 99%
22,CCOc1ccc(-c2cc(C(=O)NCc3ccccc3Cl)c3ccccc3n2)cc1,inactive: 70%

row,Structure (SMILES),survival
1,COc1cc(OC)c(OC)cc1/C=C/c1nc2cc3ccccc3cc2c(=O)n1-c1ccc(F)c(Cl)c1,inactive: 85%
2,CCc1c(C)nc(SCc2nc(-c3ccccc3)no2)[nH]c1=O,inactive: 118%
3,O=C(c1cc(-c2ccccc2O)on1)N1CCCCC1,inactive: 68%
4,O=S(=O)(c1ccc2c(c1)Cc1ccccc1-2)N1CCOCC1,inactive: 114%
5,CCN(CC)C(=O)c1sc2c(c1C)c(=O)n(CCc1ccccc1)c(=O)n2Cc1ccc(F)cc1Cl,inactive: 70%
6,CNS(=O)(=O)c1ccccc1C(=O)N/N=C/c1ccc(OC)c(OC)c1,inactive: 102%
7,O=C(c1ccc2c(c1)N(Cc1ccccc1F)C(=O)c1ccccc1S2(=O)=O)N1CCN(c2ccccc2F)CC1,inactive: 92%
8,COc1ccc2cc(-c3nc(Cl)c4c5c(sc4n3)CC(C)CC5)c(=O)oc2c1 (configuration not stated),inactive: 78%
9,O=C(Cn1c(=O)n(-c2cccc(Cl)c2)c(=O)c2sc3ccccc3c21)NC1CCCCC1,inactive: 136%
10,Cc1ccc(OCC(=O)Nc2cccc(-c3nc4ccccc4o3)c2C)cc1C,inactive: 79%
11,O=C(c1cc2sccc2n1Cc1ccccc1)N1CCN(Cc2ccc3c(c2)OCO3)CC1,inactive: 102%
12,Cc1ccc(/C=C2\SC(=O)NC2=S)o1,inactive: 56%
13,COc1ccccc1NC(=O)c1c(NC(=O)COc2ccccc2)sc2c1CCCCC2,inactive: 71%
14,CNC(=O)C1CCC(Cn2c(=O)c3sccc3n(CC(=O)NCc3ccc(OC)cc3)c2=O)CC1 (configuration not stated),inactive: 131%
15,O=C(c1ccccc1)c1ccc2nc(-c3ccco3)c(-c3ccco3)nc2c1,inactive: 51%
16,O=C(CSCc1ccc(F)cc1)N1CCN(c2ccc(Cl)cc2)CC1,inactive: 69%
17,Clc1ccc(CN2CCC(CNc3ncnc4onc(-c5ccc(Cl)cc5)c34)CC2)cc1,inactive: 31%
18,COc1ccc(C2=C/C(=C/c3ccco3)C(=O)O2)cc1,inactive: 117%
19,COc1ccc(-c2nc(CSCC(=O)NCCc3ccccc3)c(C)o2)cc1,inactive: 95%
20,CCc1ccc(-n2c(SCc3ccccc3Cl)nc3[nH]ncc3c2=O)cc1,inactive: 135%
21,CN(Cc1ccccc1)c1ccc(-c2nc(-c3ccccn3)no2)cc1[N+](=O)[O-],inactive: 67%
